Screen size: about 310,000 compounds; about 2,200 (0.71%) showed an effect of 50% or more. The effect is printed as a negative number. The list shows a part of the results.
Target: human ether-à-go-go-related gene (hERG) potassium channel (human, UniProt Q12809)
Experiment: primary screen, population patch clamp on CHO cells stably expressing hERG

Sequence of human ether-à-go-go-related gene (hERG) potassium channel (Q12809 whole entry, looked up): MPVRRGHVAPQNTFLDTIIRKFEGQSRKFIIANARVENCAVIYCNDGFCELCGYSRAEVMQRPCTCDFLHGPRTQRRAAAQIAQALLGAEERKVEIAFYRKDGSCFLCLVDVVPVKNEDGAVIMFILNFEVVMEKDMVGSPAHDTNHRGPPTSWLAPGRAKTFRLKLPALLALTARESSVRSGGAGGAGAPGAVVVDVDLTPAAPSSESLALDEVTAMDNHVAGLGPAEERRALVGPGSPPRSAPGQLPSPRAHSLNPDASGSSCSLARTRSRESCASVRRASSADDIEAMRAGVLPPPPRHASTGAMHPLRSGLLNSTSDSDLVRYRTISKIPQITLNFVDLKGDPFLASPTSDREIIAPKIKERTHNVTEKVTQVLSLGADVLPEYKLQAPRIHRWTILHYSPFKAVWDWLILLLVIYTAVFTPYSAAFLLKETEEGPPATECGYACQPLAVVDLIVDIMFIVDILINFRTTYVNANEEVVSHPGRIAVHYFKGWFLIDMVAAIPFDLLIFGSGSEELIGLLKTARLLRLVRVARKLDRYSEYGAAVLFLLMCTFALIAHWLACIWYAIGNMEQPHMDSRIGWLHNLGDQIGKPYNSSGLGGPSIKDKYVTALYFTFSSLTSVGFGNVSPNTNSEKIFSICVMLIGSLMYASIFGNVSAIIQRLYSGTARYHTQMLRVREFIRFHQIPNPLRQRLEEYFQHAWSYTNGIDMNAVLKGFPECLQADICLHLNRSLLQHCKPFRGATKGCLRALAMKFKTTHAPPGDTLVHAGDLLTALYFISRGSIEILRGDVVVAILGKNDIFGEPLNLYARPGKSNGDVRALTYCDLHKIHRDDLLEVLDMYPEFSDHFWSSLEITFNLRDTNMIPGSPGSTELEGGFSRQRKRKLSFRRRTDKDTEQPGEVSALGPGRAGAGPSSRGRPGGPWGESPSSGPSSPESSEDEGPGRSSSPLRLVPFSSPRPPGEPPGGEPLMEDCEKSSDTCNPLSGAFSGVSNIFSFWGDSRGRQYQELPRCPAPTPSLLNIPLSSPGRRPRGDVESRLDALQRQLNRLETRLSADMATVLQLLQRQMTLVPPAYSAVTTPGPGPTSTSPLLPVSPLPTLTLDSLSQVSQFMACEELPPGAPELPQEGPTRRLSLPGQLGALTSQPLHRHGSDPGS

SMILES	hERG current change (%, negative = inhibition) at 1uM [%]
COCCNC(=O)C(c1ccc(OC)cc1)N(C(=O)Cn1nnc2ccccc21)c1cccnc1 (centres unmarked)	8.91
COc1cc(NC(=S)N2CCN(S(=O)(=O)c3ccc(C)cc3)CC2)cc(OC)c1	1
COc1ccccc1C(=O)NCCn1cc(SCC(=O)Nc2nnc(C)s2)c2ccccc21	12.8
O=C(CNC(=O)c1cccs1)c1ccc(F)cc1	10.7
CCOC(=O)c1sc2nc(C)nc(SCC(=O)N(C)C3CCS(=O)(=O)C3)c2c1C (centres unmarked)	3.89
CCOc1ccc2nc(NC(=O)C3CCCN(S(=O)(=O)c4c(C)noc4C)C3)sc2c1 (centres unmarked)	12.2
COc1nnc(-c2ccc(C)c(S(N)(=O)=O)c2)c2ccccc12	3.63
COCCN(C(=O)CSc1nnc(-c2ccccc2F)o1)c1c(N)n(CC(C)C)c(=O)[nH]c1=O	7.53
COCCN(CCOC)S(=O)(=O)c1ccc(C(=O)Nc2nnc(CSC)o2)cc1	10.8
COCCNc1oc(/C=C/c2ccc(F)cc2)nc1S(=O)(=O)c1ccccc1	14.8
CCc1c(C)sc(NC(=O)CCc2ccc(OC)cc2)c1C(N)=O	16.6
CCCc1cc2c(cc1NS(=O)(=O)c1ccc(CCNC(C)=O)cc1)OCO2	-33.9
CCc1ccc(OCC(O)CN2CCN(c3ccc(OC)cc3)CC2)cc1.Cl (centres unmarked)	-15.2
CC(=O)Oc1ccc(OC(C)=O)c(S(=O)(=O)c2ccc(C)c(C)c2)c1	15.3
CSc1nn2c(C(F)(F)F)cc(C(F)(F)F)nc2c1C(N)=O	11.4
COc1cc(C(CC(=O)N2CCOCC2)c2c(OC)cc(OC)c3ccc(=O)oc23)cc(OC)c1OC (centres unmarked)	14.6
Cc1sc2ncnc(N(C)Cc3cccs3)c2c1C	4.84
O=C(Nc1ccc2nccnc2c1)c1ccco1	14
COc1ccccc1CNS(=O)(=O)c1ccc2c(c1)NC(=O)CS2	8.67
COc1ccc(Nc2nccc(-c3cccc(N)c3)n2)cc1	20
C/C(CC(=O)Nc1cc(Cl)ccc1Cl)=N\NC(=O)c1ccco1	6.61
Cc1cc(C)c2c(CC(=O)O)c(C)[nH]c2c1	5.64

SMILES	hERG current change (%, negative = inhibition) at 1uM [%]
N#CCC(=O)Nc1ccc(C(=O)N2CCN(S(=O)(=O)c3ccc4ccccc4c3)CC2)cc1	9
COc1c(Br)cc(Br)cc1C(=O)Nc1ccccc1N1CCCC1	15.6
COc1ccc(OC)c(CCNC(=O)CCc2cn(C)c3ccccc23)c1	14.2
O=C(CN1CCN(c2ccccn2)CC1)N1c2ccccc2CCc2ccccc21.O=C(O)C(=O)O	8.38
O=C(O)Cc1sc(NC2CCCCC2)nc1-c1ccc(Cl)cc1	15.2
CCOc1ccc(-n2cnnn2)cc1S(=O)(=O)N1CCC(C)CC1C (centres unmarked)	7.73
CCOCCCNC(=O)C(NC(=O)Cc1c[nH]c2ccccc12)c1ccc(OC)cc1 (centres unmarked)	14.7
O=C(NCCCCO)C(F)(F)C(F)(F)C(F)(F)C(=O)NCCCCO	14.4
Brc1ccccc1-c1nnc(CSc2nnnn2-c2ccccc2)o1	17
Cc1onc(-c2ccccc2Cl)c1C(=O)Nc1nnc(Cc2ccc(Cl)cc2)s1	6.01
CC(NS(=O)(=O)c1ccc(OCC(=O)N2CCOCC2)cc1)c1ccccc1 (centres unmarked)	11.5
O=S(=O)(NCCCNS(=O)(=O)c1c(F)cccc1F)c1ccc2c(c1)OCCO2	10.2
NS(=O)(=O)c1ccc(NC(=S)Nc2ccn(Cc3cccc4ccccc34)n2)cc1	11.6
O=C(O)c1cc(Nc2nc(N3CCOCC3)nc(N3CCOCC3)n2)ccc1Cl	16
CCOc1ccc(S(=O)(=O)N2CCN(CN3C(=O)CC4(CCCC4)C3=O)CC2)cc1	4.51
O=C(Cc1cc(=O)[nH][nH]1)N/N=C/c1ccccc1[N+](=O)[O-]	4.53
CCCC(=O)NC(c1ccccc1)c1ccc2cccnc2c1O (centres unmarked)	7.24
COc1ccc(C2C(C#N)=C(N)Oc3cccc(O)c32)cc1 (centres unmarked)	17.2
COc1ccc(S(=O)(=O)N2CCC(C(=O)NCc3ccccn3)CC2)cc1C	1.44
O=C(CN(Cc1ccc(Cl)c(Cl)c1)S(=O)(=O)c1ccccc1)N/N=C\c1ccc2c(c1)OCO2	5.91
Cc1ccc(S(=O)(=O)CCC(=O)Nc2nc3c(s2)CCCC3)cc1	4.76
CC(=O)Nc1ccc(NC(=O)c2cc([N+](=O)[O-])cc([N+](=O)[O-])c2)cc1	23.8

SMILES	hERG current change (%, negative = inhibition) at 1uM [%]
Nc1nnc(CC2=CCCCC2)s1	13
Cc1ccc(NC(=O)C(C)SCc2nc3sc(C)c(C)c3c(=O)[nH]2)nc1 (centres unmarked)	-2.28
Cc1ccc(/C(O)=C2\C(=O)C(=O)N(C)C2c2cccc([N+](=O)[O-])c2)cc1 (centres unmarked)	14.9
CCn1c(SCc2ccc(F)cc2)nnc1C1CCN(S(=O)(=O)c2ccc(OC)cc2)CC1	-18.8
CCN1C(=O)C(=C2C=C(C)OC(C)=C2)C(=O)N(CC)C1=S	9.14
Cc1cccn2c(=O)c(/C=C(\C#N)S(=O)(=O)c3ccccc3)c(N3CCN(c4ccccc4)CC3)nc12	18.2
CC(C)C(C)NC(=O)COc1ccc(S(=O)(=O)N2CCOCC2)cc1Cl (centres unmarked)	11.9
CC1CCCN(S(=O)(=O)c2cc3c4c(c2)CCN4C(=O)CC3)C1 (centres unmarked)	6.9
CCNC(=S)NN=C1c2ccccc2-c2ccccc21	9.39
O=C1C2=C(C(c3ccccc3)=NCCN2)C(c2cccc([N+](=O)[O-])c2)N1c1ccccc1 (centres unmarked)	6.18
COP(=S)(OC)SCN1C(=O)c2ccccc2C1=O	14.5
O=C(NN1C(=O)c2ccc3c4c(ccc(c24)C1=O)CC3)c1ccc(Br)cc1	6.25
CC(C)c1cc(C(=O)NCc2cccnc2)no1	-5.86
CCCCn1c(N)c(C(=O)NCc2cccs2)c2nc3ccccc3nc21	-0.982
CC(=O)N1CCN(Cc2nc3cc(NC(=O)C4CCCCC4)ccc3n2C)CC1	-4.74
O=C(CSc1nnc(-c2ccccc2F)o1)NC(=O)Cc1ccccc1	10.3
CCN(c1ccccc1)S(=O)(=O)c1ccc(OCc2c(C)noc2C)cc1	2.73
CCOC(=O)N1CCC(n2c(SCC(=O)OCc3ccccc3)nc3ccsc3c2=O)CC1	-4.04
CC(=O)C1=C(C)NC(=O)NC1/C=C/c1ccccc1 (centres unmarked)	8.73
COc1cc(CNn2cn[nH]c2=S)cc(Cl)c1OCc1ccccc1	12.9
Cc1ccc2c(c1)-c1c(cnn1CC(=O)N(CCC#N)c1ccccc1)CO2	-29
CCOC(=O)C1C(=O)N(O)CC1c1cccc(Oc2ccccc2)c1 (centres unmarked)	13.9

SMILES	hERG current change (%, negative = inhibition) at 1uM [%]
CCn1c(C(=O)NCCCN2CCc3ccccc3C2)cc2sccc21	-48.1
COc1ccc(NC(=O)C2CCCN(C)C2)cc1OCC(C)C (centres unmarked)	-2.36
COc1ccc(N2C(=O)CC(N(CCc3ccccc3)C(=O)/C=C/C(=O)O)C2=O)cc1 (centres unmarked)	3.01
C=CCNc1nnc(C)c2ccccc12	12.2
COCCN(Cc1cc2cc(C)c(C)cc2nc1Cl)C(=O)Nc1ccccc1	10.7
N/C(=N\OS(=O)(=O)c1ccccc1)c1ccccn1	-4.14
CC(C)c1c(C(=O)N/N=C/C2CC=CCC2)nnn1-c1nonc1N (centres unmarked)	6.89
Cc1cccc(NC(=O)CNC(=O)C(NC(=O)Cc2ccccc2)C(C)C)c1C (centres unmarked)	3.64
Fc1cccc(CN2CCN(C(=S)NCCc3ccccc3)CC2)c1	3.14
Cn1c(N)c(C(=O)COC(=O)c2cc(C3CC3)nc3ccccc23)c(=O)n(C)c1=O	-17.7
CC(Sc1nnnn1C)C(=O)Nc1nc(-c2ccc(F)c(F)c2)cs1 (centres unmarked)	1.16
CCOc1ccccc1NC(=O)c1ccc(C(=O)Nc2ccccc2OCC)nc1	20.3
CN(Cc1ccccc1)C(=O)c1ccccc1-c1ccccc1	6.36
O=C1C(Oc2ccc(Cl)cc2)C(c2ccc3c(c2)OCO3)N1CC1CCCO1 (centres unmarked)	4.94
Cl.c1ccc(C2CC2)c(OCC2=NCCN2)c1	7.71
CCO[C@H]1OC(C(=O)N2CCN(C)CC2)=C[C@@H](c2csc3ccccc23)[C@@H]1CCCO	3.77
CCN(CC(=O)NC(c1ccccc1)c1ccccc1)Cc1nc2ccccc2c(=O)[nH]1	9.16
COC(=O)c1ccc(N2C(=O)CC(NCc3ccccc3)C2=O)cc1 (centres unmarked)	10.7
O=C(NCc1ccccc1)c1nncc(-c2ccccc2)n1	3.9
CSc1nc(-c2ccccc2)nc(NC(=O)c2ccccc2)c1C(C)=O	10.8
